Reference: the antibiotic and cytotoxicity screens of Wong et al. (2023)
This is one part of the list.

Test system: HepG2
Experiment: cytotoxicity call (relative viability < 0.9)
Settings: 10 µM

SMILES	cytotoxicity call
COCC(=O)N(C)C[C@H]1Oc2cc(C#CC(C)(C)O)ccc2S(=O)(=O)N([C@@H](C)CO)C[C@H]1C	inactive
C[C@H]1CN([C@@H](C)CO)C(=O)c2c(c3ccccc3n2C)-c2ccccc2CO[C@@H]1CN(C)C(=O)CCC(F)(F)F	inactive
NC(=O)c1cccnc1N1CCN(C(=O)[C@@H]2CC(=O)N(C3CC3)C2)CC1	inactive
C[C@@H]1CN([C@H](C)CO)S(=O)(=O)c2ccc(C#Cc3ccccc3)cc2O[C@H]1CN(C)S(=O)(=O)c1cn(C)cn1	inactive
C[C@@H]1CN([C@@H](C)CO)C(=O)c2cc(C#CC3(O)CCCC3)cnc2O[C@H]1CN(C)C(=O)Cc1ccncc1	inactive
CCN1C(=O)CS/C1=N\N1CCOCC1	inactive
Nc1ncnc2c1ncn2[C@H]1O[C@@H](CO)[C@H](O)[C@@H]1S	inactive
COC(=O)C(Cc1ccccc1)NC(=O)C(N)CC(=O)O (configuration not stated)	inactive
CC(=O)O[C@@H]1[C@@H]2OC(=O)[C@H](OC(C)=O)[C@@H]2O[C@H]1n1ccc(=O)[nH]c1=O	inactive
C[C@@H]1CCCCO[C@@H](CN(C)CC2CC2)[C@@H](C)CN([C@H](C)CO)C(=O)c2cc(NC(=O)NC3CCCCC3)ccc2O1	inactive
CCCN(C)C[C@H]1OCCCC[C@@H](C)Oc2ccc(NC(=O)C3CCCCC3)cc2C(=O)N([C@H](C)CO)C[C@@H]1C	inactive
CN1C(=O)c2cc(NS(=O)(=O)c3cccc(F)c3)ccc2OC[C@H]2O[C@H](CC(=O)NCCN3CCCCC3)CC[C@H]21	inactive
COc1ccc(NC(=O)N(C)C[C@H]2OCCCC[C@H](C)Oc3ccc(NS(=O)(=O)c4cccs4)cc3C(=O)N([C@@H](C)CO)C[C@H]2C)cc1	inactive
COCC#Cc1ccc2c(c1)O[C@H](CN(C)S(C)(=O)=O)[C@H](C)CN([C@H](C)CO)S2(=O)=O	inactive
COCC#Cc1ccc2c(c1)O[C@H](CN(C)S(=O)(=O)c1ccc(C)cc1)[C@@H](C)CN([C@H](C)CO)S2(=O)=O	inactive
C[C@H](CO)N1C[C@H](C)[C@H](CN(C)C(=O)Nc2ccc3c(c2)OCO3)Oc2c(NC(=O)Nc3cccc4ccccc34)cccc2C1=O	inactive
C[C@@H]1CN([C@H](C)CO)C(=O)c2cc(NC(=O)NC3CCCCC3)ccc2O[C@@H]1CN(C)Cc1ccc(-c2ccccc2)cc1	active
